Results as given in patent publication US20160122768A1 (LA JOLLA INSTITUTE FOR ALLERGY AND IMMUNOLOGY, published 2016).

Target: T1, C-terminally HA-tagged wild type (WT) RPTPκ (NM 008983.2), full-length, immunoprecipitated from COS-1 cells (UniProt P35822 26-1457)
T1 construct: It was held on anti-HA immunoprecipitate beads in the assay; also called HA-tagged WT RPTPκ; full-length RPTPk; not shown: C-terminal HA tag
T1 sequence (looked up): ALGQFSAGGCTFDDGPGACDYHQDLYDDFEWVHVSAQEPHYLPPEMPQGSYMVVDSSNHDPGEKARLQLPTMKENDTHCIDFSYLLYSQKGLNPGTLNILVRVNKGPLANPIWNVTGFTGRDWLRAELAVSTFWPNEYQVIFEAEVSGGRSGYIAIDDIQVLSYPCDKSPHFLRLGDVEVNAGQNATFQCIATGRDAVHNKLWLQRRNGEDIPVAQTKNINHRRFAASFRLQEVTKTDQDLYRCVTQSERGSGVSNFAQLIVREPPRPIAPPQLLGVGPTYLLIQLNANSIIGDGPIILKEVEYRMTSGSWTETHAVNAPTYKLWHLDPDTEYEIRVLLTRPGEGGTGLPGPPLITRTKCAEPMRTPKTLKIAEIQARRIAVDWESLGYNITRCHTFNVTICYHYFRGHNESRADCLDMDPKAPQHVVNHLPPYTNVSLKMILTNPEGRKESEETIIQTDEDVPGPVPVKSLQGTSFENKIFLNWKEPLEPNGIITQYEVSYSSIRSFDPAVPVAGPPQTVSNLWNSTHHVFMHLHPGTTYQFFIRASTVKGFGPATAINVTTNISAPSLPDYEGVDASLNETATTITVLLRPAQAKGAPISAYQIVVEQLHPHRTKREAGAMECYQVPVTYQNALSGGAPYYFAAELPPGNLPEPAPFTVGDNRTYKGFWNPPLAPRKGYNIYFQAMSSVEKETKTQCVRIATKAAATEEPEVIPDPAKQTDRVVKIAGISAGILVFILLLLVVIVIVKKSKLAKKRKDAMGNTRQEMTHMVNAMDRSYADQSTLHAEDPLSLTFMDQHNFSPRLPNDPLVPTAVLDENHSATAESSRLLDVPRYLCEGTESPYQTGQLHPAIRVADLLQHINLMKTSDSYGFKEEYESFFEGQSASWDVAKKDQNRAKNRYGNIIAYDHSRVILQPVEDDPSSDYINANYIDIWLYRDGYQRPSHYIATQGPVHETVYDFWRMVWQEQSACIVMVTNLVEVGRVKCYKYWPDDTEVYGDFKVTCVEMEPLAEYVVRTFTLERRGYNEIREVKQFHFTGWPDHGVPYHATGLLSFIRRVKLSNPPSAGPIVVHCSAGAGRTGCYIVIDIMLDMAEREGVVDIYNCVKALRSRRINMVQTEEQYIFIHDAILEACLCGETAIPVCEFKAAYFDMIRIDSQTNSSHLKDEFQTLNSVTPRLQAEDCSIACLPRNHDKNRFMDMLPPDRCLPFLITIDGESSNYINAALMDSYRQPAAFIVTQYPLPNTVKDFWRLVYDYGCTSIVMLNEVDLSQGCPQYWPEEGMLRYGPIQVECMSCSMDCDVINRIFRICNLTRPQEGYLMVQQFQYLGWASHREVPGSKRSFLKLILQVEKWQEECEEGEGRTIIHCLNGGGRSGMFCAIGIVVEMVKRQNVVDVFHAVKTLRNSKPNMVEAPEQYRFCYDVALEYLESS
Test: pull-down of RA FLS lysates with immunoprecipitated HA-tagged RPTPκ, Western blotting
Experimental: In vitro Pull-Down Assay. HA-tagged WT RPTPκ was overexpressed in COS-1 cells. Cells were lysed in THE buffer (20 mM Tris-HCl pH 7.5, 150 mM NaCl, 5 mM EDTA pH 8.0 and 1% NP-40) containing 10 μg/mL aprotinin, 10 μg/mL leupeptin, 10 μg/mL soybean trypsin inhibitor, and 1 mM phenylmethylsulfonyl fluoride. RPTPκ was immunoprecipitated using anti-HA antibody (Covance, Princeton, N.J.). RA FLS were lysed in RIPA buffer containing 10 μg/mL aprotinin, 10 μg/mL leupeptin, 10 μg/mL soybean trypsin inhibitor, 1 mM phenylmethylsulfonyl fluoride and 5 mM iodoacetamide. Lysates were treated with 10 mM dithiothreitol for 10 min, and then diluted 10-fold in buffer containing 25 mM Tris-HCl pH 7.6, 150 mM NaCl and 1 mM ethylenediaminetetraacetic acid. Immunoprecipitates were incubated with RA FLS lysates for 3 hr at 4° C., washed in the dilution buffer, and subjected to Western blotting.
We next investigated if RPTPk directly interacts with and/or dephosphorylates SFKs. HA-tagged RPTPκ was immunoprecipitated from COS-1 cells and incubated in vitro with RA FLS lysates, and pull-down was subjected to Western blotting. Both full-length RPTPk immunoprecipitated from COS-1 cells and a recombinant substrate-trapping mutant of the RPTPk catalytic domain (iPTPk-D1051A) precipitated SRC from RA FLS lysates in pull-down assays, but not YES or FYN (SFKs also expressed in FLS).

binding result: no binding
B1: FYN (endogenous, from RA FLS lysates) (enzyme)
chain: not shown
